From the supplement of paper PMC8728848
The list shows a part of the results.

Legend:
Assay in all cases: glycan array binding signal (z-score within array); higher = stronger binding
Settings in all cases: glycan notation: IUPAC condensed, linker removed
[1] = biological target: Neu5Ac(a2-3)Gal(b1-3)[Fuc(a1-4)]GlcNAc
Summary of the method: (§1)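 The binding signal is a Z-score computed within each array and averaged over linkers. Arrays of the same protein sequence at different concentrations or buffers were also averaged together. Data originate from 3228 arrays in the Consortium for Functional Glycomics database, kept only where the protein sequence was available.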

[2] = biological target: Neu5Ac(a2-3)Gal(b1-3)[Fuc(a1-4)]GlcNAc(b1-3)Gal(b1-3)[Fuc(a1-4)]GlcNAc
Summary of the method: as §1

[3] = biological target: Neu5Ac(a2-3)Gal(b1-3)[Fuc(a1-4)]GlcNAc(b1-3)Gal(b1-4)[Fuc(a1-3)]GlcNAc
Summary of the method: as §1

[4] = biological target: Neu5Ac(a2-3)Gal(b1-3)[GlcNAc(b1-6)]GalNAc
Summary of the method: as §1

[5] = biological target: Neu5Ac(a2-3)Gal(b1-3)[Neu5Ac(a2-6)]GalNAc
Summary of the method: as §1

[6] = biological target: Neu5Ac(a2-3)Gal(b1-3)[Neu5Ac(a2-6)]GlcNAc(b1-3)[Fuc(a1-3)[Gal(b1-4)]GlcNAc(b1-6)]Gal(b1-4)Glc
Summary of the method: as §1

[7] = biological target: Neu5Ac(a2-3)Gal(b1-3)]Neu5Ac(a2-3)Gal(b1-4)]GlcNAc
Summary of the method: as §1

Neu5Ac(a2-3)Gal(b1-4)Glc = biological target: Neu5Ac(a2-3)Gal(b1-4)Glc
Summary of the method: as §1

[8] = biological target: Neu5Ac(a2-3)Gal(b1-4)GlcNAc
Summary of the method: as §1

[9] = biological target: Neu5Ac(a2-3)Gal(b1-4)GlcNAc(b1-2)Man
Summary of the method: as §1

[10] = biological target: Neu5Ac(a2-3)Gal(b1-4)GlcNAc(b1-2)Man(a1-3)[GlcNAc(b1-4)][Neu5Ac(a2-3)Gal(b1-4)GlcNAc(b1-2)Man(a1-6)]Man(b1-4)GlcNAc(b1-4)GlcNAc
Summary of the method: as §1

[11] = biological target: Neu5Ac(a2-3)Gal(b1-4)GlcNAc(b1-2)Man(a1-3)[Neu5Ac(a2-3)Gal(b1-4)GlcNAc(b1-2)Man(a1-6)]Man(b1-4)GlcNAc(b1-4)GlcNAc
Summary of the method: as §1

[12] = biological target: Neu5Ac(a2-3)Gal(b1-4)GlcNAc(b1-2)Man(a1-3)[Neu5Ac(a2-3)Gal(b1-4)GlcNAc(b1-2)Man(a1-6)]Man(b1-4)GlcNAc(b1-4)[Fuc(a1-6)]GlcNAc
Summary of the method: as §1

[13] = biological target: Neu5Ac(a2-3)Gal(b1-4)GlcNAc(b1-2)Man(a1-3)[Neu5Ac(a2-6)Gal(b1-4)GlcNAc(b1-2)Man(a1-6)]Man(b1-4)GlcNAc(b1-4)GlcNAc
Summary of the method: as §1

[14] = biological target: Neu5Ac(a2-3)Gal(b1-4)GlcNAc(b1-2)[Neu5Ac(a2-3)Gal(b1-4)GlcNAc(b1-4)]Man(a1-3)[GlcNAc(b1-4)][Neu5Ac(a2-3)Gal(b1-4)GlcNAc(b1-2)[Neu5Ac(a2-3)Gal(b1-4)GlcNAc(b1-6)]Man(a1-6)]Man(b1-4)GlcNAc(b1-4)GlcNAc
Summary of the method: as §1

[15] = biological target: Neu5Ac(a2-3)Gal(b1-4)GlcNAc(b1-2)[Neu5Ac(a2-3)Gal(b1-4)GlcNAc(b1-4)]Man(a1-3)[GlcNAc(b1-4)][Neu5Ac(a2-3)Gal(b1-4)GlcNAc(b1-4)Man(a1-6)]Man(b1-4)GlcNAc(b1-4)GlcNAc
Summary of the method: as §1

[16] = biological target: Neu5Ac(a2-3)Gal(b1-4)GlcNAc(b1-2)[Neu5Ac(a2-3)Gal(b1-4)GlcNAc(b1-6)]Man(a1-6)[Neu5Ac(a2-3)Gal(b1-4)GlcNAc(b1-2)Man(a1-3)]Man(b1-4)GlcNAc(b1-4)GlcNAc
Summary of the method: as §1

[17] = biological target: Neu5Ac(a2-3)Gal(b1-4)GlcNAc(b1-2)[Neu5Ac(a2-3)Gal(b1-4)GlcNAc(b1-6)]Man(a1-6)[Neu5Ac(a2-3)Gal(b1-4)GlcNAc(b1-2)Man(a1-3)][GlcNAc(b1-4)]Man(b1-4)GlcNAc(b1-4)GlcNAc
Summary of the method: as §1

[18] = biological target: Neu5Ac(a2-3)Gal(b1-4)GlcNAc(b1-3)Gal
Summary of the method: as §1

[19] = biological target: Neu5Ac(a2-3)Gal(b1-4)GlcNAc(b1-3)Gal(b1-3)GlcNAc
Summary of the method: as §1

[20] = biological target: Neu5Ac(a2-3)Gal(b1-4)GlcNAc(b1-3)Gal(b1-4)GlcNAc
Summary of the method: as §1

[21] = biological target: Neu5Ac(a2-3)Gal(b1-4)GlcNAc(b1-3)Gal(b1-4)GlcNAc(b1-2)Man(a1-3)[Neu5Ac(a2-3)Gal(b1-4)GlcNAc(b1-3)Gal(b1-4)GlcNAc(b1-2)Man(a1-6)]Man(b1-4)GlcNAc(b1-4)GlcNAc
Summary of the method: as §1

[22] = biological target: Neu5Ac(a2-3)Gal(b1-4)GlcNAc(b1-3)Gal(b1-4)GlcNAc(b1-3)Gal(b1-4)GlcNAc
Summary of the method: as §1

[23] = biological target: Neu5Ac(a2-3)Gal(b1-4)GlcNAc(b1-3)Gal(b1-4)GlcNAc(b1-3)Gal(b1-4)GlcNAc(b1-2)Man(a1-3)[Neu5Ac(a2-3)Gal(b1-4)GlcNAc(b1-3)Gal(b1-4)GlcNAc(b1-3)Gal(b1-4)GlcNAc(b1-2)Man(a1-6)]GalNAc
Summary of the method: as §1

[24] = biological target: Neu5Ac(a2-3)Gal(b1-4)GlcNAc(b1-3)Gal(b1-4)GlcNAc(b1-3)GalNAc
Summary of the method: as §1

[25] = biological target: Neu5Ac(a2-3)Gal(b1-4)GlcNAc(b1-3)Gal(b1-4)GlcNAc(b1-3)[Neu5Ac(a2-3)Gal(b1-4)GlcNAc(b1-3)Gal(b1-4)GlcNAc(b1-6)]GalNAc
Summary of the method: as §1

[26] = biological target: Neu5Ac(a2-3)Gal(b1-4)GlcNAc(b1-3)Gal(b1-4)GlcNAc(b1-6)[Gal(b1-3)]GalNAc
Summary of the method: as §1

[27] = biological target: Neu5Ac(a2-3)Gal(b1-4)GlcNAc(b1-3)Gal(b1-4)[Fuc(a1-3)]GlcNAc
Summary of the method: as §1

[28] = biological target: Neu5Ac(a2-3)Gal(b1-4)GlcNAc(b1-3)GalNAc
Summary of the method: as §1

[29] = biological target: Neu5Ac(a2-3)Gal(b1-4)GlcNAc(b1-3)[Neu5Ac(a2-3)Gal(b1-4)GlcNAc(b1-6)]GalNAc
Summary of the method: as §1

B1: GS13686A-pdi-553-26-553 (Parabacteroides distasonis) (protein)
chain: NENPDKPTDDVNYNMNEPRLASTLRGGLIIEGNVEQRLKPLQIDFYSQMTVDGGGWGTKNYIQDDEWNNLVWEEYLKQIASINIVIRSLTEKDKDAYANTIAFARIWRVYVHTLAADKFGPMPFPAYEIVEANPPYKSLKDIYDEYFRELDAAINGFNDSAQPIFSDAGIDLIYKNDVSKWKRFANSLRLRLAVRLTEVDQEKCIAEANAAISSPAGLISDKADNAYMPPKADGSWGQDYNYTMFQITWSGPICMSKSVEKLVTNIGGVAWPQGVVNQTSGVAVSSVHPEKVDPRAPKIFQPGIENGDWKGLVYGPKAEEANTGIYQSKQCAELGFIIKDGYPYKSRPYDLFLSEEVHFLKAELYARGFIAGDAKSEYEAGVRASFATWGVTSEVDDYLTSTEKNEAGTSARYDDQQGAGNTALEKIITQKYIAGIPDLAQEGWNDKRRLNLPRLDVAVYRDQAVYNNNDKDILKSANFIKRMRYPTKESLINATEYEKGKSMLGGKGDIVSTPLWWDKNSNYCTSSK
glycan array binding signal (z-score) [1]: -0.154 | glycan array binding signal (z-score) [2]: -0.153 | glycan array binding signal (z-score) [3]: 0.14 | glycan array binding signal (z-score) [4]: -0.277 | glycan array binding signal (z-score) [5]: -0.322 | glycan array binding signal (z-score) [6]: -0.086 | glycan array binding signal (z-score) [7]: -0.327 | glycan array binding signal (z-score) (Neu5Ac(a2-3)Gal(b1-4)Glc): -0.314 | glycan array binding signal (z-score) [8]: -0.118 | glycan array binding signal (z-score) [9]: 0.125 | glycan array binding signal (z-score) [10]: -0.157 | glycan array binding signal (z-score) [11]: -0.089 | glycan array binding signal (z-score) [12]: -0.119 | glycan array binding signal (z-score) [13]: 1.01 | glycan array binding signal (z-score) [14]: 0.051 | glycan array binding signal (z-score) [15]: -0.263 | glycan array binding signal (z-score) [16]: -0.229 | glycan array binding signal (z-score) [17]: -0.154 | glycan array binding signal (z-score) [18]: -0.363 | glycan array binding signal (z-score) [19]: -0.389 | glycan array binding signal (z-score) [20]: -0.15 | glycan array binding signal (z-score) [21]: 0.246 | glycan array binding signal (z-score) [22]: -0.211 | glycan array binding signal (z-score) [23]: 0.409 | glycan array binding signal (z-score) [24]: 0.073 | glycan array binding signal (z-score) [25]: 0.156 | glycan array binding signal (z-score) [26]: -0.217 | glycan array binding signal (z-score) [27]: -0.244 | glycan array binding signal (z-score) [28]: -0.277 | glycan array binding signal (z-score) [29]: -0.385
